# Data published in publication PMC10668032.
# This is one part of the list. At the low end of the ranking the order means little.
# Biological target: SIX1 homeodomain (reference allele) (UniProt Q15475)
# Test: universal protein binding microarray
# Settings: Universal all-10-mer PBM (8x60K, AMADID 030236), 300 nM GST-tagged protein, Alexa Fluor 488 anti-GST; buffer, salt, pH and temperature not stated; high values mean tight binding; most listed sequences are background and not binding sites; double strand, one strand shown
row,Sequence,binding signal
1,CCTTAAAG,-0.043 E-score
2,ACTTCAGG,-0.114 E-score
3,ACGTCACG,-0.0848 E-score
4,CATCTTGC,0.0243 E-score
5,GTTGCTTA,-0.134 E-score
6,AACTCAAT,-0.0503 E-score
7,GCTGAATA,-0.156 E-score
8,AACCAATG,-0.119 E-score
9,AAGTTGTC,-0.0837 E-score
10,ACCAGAGA,0.0419 E-score
11,GAGAATGA,0.0535 E-score
12,CAAGTAAA,-0.0914 E-score
13,AACGTCTG,-0.125 E-score
14,AACAGACA,-0.0522 E-score
15,ATGTTGAG,0.0841 E-score
16,GGCATTAC,-0.194 E-score
17,ATGGTTGC,-0.147 E-score
18,TACTTGCA,-0.112 E-score
19,AAATGGCA,-0.108 E-score
20,AGAATGGC,-0.31 E-score
21,ATTGTTCG,-0.0335 E-score
22,GCAGACCC,-0.0239 E-score

row,Sequence,binding signal
1,AACAATAC,0.255 E-score
2,AGTGAAGC,-0.186 E-score
3,CTATTCAG,-0.00496 E-score
4,CGTTGCGA,-0.152 E-score
5,GTCACGTA,-0.123 E-score
6,CGTGAGAG,-0.0489 E-score
7,ATCCTATC,0.375 E-score
8,AGCTCCGA,-0.121 E-score
9,GCAGTGTA,0.076 E-score
10,AAGTCGAT,-0.0496 E-score
11,AAACTTAT,-0.192 E-score
12,CCCTTGGC,-0.139 E-score
13,ACAACTTC,-0.18 E-score
14,CCAACCCA,-0.0438 E-score
15,CACCTGAC,0.079 E-score
16,TATGCGCA,-0.03 E-score
17,ATCGACGA,-0.0174 E-score
18,ACGAGTCG,0.0298 E-score
19,ACGACCTG,-0.0928 E-score
20,GCCGACAC,0.11 E-score
21,AAGACCAG,-0.192 E-score
22,AACCAAGT,-0.142 E-score

row,Sequence,binding signal
1,ACGCAAGG,-0.0872 E-score
2,ACAGGCTC,0.0633 E-score
3,GGTTTCAC,0.121 E-score
4,ATCTGCCA,0.187 E-score
5,AGGGTAAT,0.205 E-score
6,AGCGGCCA,-0.307 E-score
7,ACAGTACT,-0.049 E-score
8,CAGATCTC,0.241 E-score
9,CAAGGCAA,-0.162 E-score
10,GAACGCCA,-0.0986 E-score
11,GCTTCGGA,-0.0452 E-score
12,AGAATAAA,-0.0869 E-score
13,TTGAAAAA,-0.124 E-score
14,ACACAGGC,-0.092 E-score
15,GAACGTCA,-0.248 E-score
16,CTACCGAC,-0.196 E-score
17,GAAATAAC,-0.111 E-score
18,GATTGGAC,-0.184 E-score
19,CGTTGCTC,-0.101 E-score
20,GACACGTA,0.211 E-score
21,CGTAAAGC,-0.198 E-score
22,ATAGGAGG,0.115 E-score

row,Sequence,binding signal
1,CTTGTTCC,-0.0131 E-score
2,AAGGAAGA,-0.114 E-score
3,ATCGATTC,0.2 E-score
4,CTAGATCC,0.191 E-score
5,ATTGGAAA,-0.194 E-score
6,CCAACACA,0.033 E-score
7,GGGATTCA,0.098 E-score
8,GTGGATGA,0.128 E-score
9,AGTGTGAC,0.0378 E-score
10,CCGTGGCA,-0.0688 E-score
11,AGTGTGAA,-0.0571 E-score
12,GCTGTAAC,-0.18 E-score
13,ACTAGCAG,-0.196 E-score
14,AGAAGAAT,-0.077 E-score
15,ATGTTGAA,-0.0507 E-score
16,TGCATCCA,0.00122 E-score
17,AATCGCTG,-0.333 E-score
18,GGGTTGCA,-0.0442 E-score
19,CTTATGTA,-0.115 E-score
20,AGTGACCC,-0.0107 E-score
